# From PubChem BioAssay AID504845 (National Center for Advancing Translational Sciences (NCATS), 2011)
# Screen size: about 390,000 compounds; about 150 (0.038%) were called active. The shares of active, inactive and inconclusive entries below differ from those in the screen. Calls come from the whole dose curve; as a rule, active = well fitted inhibition curve with a large enough effect; inconclusive = small, poorly fitted or top-dose-only effect; inactive = no such curve, though single readings can be large or run the other way. A potency beside an inconclusive call is a rough fit, not a confirmed value.
# Biological target: Regulator of G-protein signaling 4 (Homo sapiens) (UniProt P49798)
# Test: Inhibitors of Regulator of G Protein Signaling (RGS) 4: qHTS; note: nearly all actives have a fitted effect of over 75% in size
# Conditions: Transcreener GDP fluorescence polarization, RGS4-accelerated GTP hydrolysis; series mostly up to 114 µM
# Summary of the method: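 MLSMR compounds (23 nl, pin-transferred) preincubated 10 min at room temperature with a 500nM (2x) first reagent, then RGS4 at 900nM (2x) plus Transcreener GDP mix added; fluorescence polarization (620/688 nm) read before and after 90 min at 30 °C.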
# Potency is the fitted concentration of half-maximal effect; tags give direction and shape of the fitted curve.
# UniProt P49798, sequence (P49798 whole entry, looked up): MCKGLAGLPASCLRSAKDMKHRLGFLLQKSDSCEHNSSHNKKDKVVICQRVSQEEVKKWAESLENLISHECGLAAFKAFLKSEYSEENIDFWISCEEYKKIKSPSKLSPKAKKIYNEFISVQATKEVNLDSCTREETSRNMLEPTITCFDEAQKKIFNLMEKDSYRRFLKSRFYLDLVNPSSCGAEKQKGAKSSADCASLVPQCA
row,SMILES,Potency
1,N#Cc1ccccc1NC(=O)c1ccc2c(Cl)c3c(nc2c1)CCCC3,inactive
2,Cc1ccccc1NS(=O)(=O)c1ccc(OCC(=O)N2CCCC2)cc1,"inconclusive: 100 µM [inhibitor, single point]"
3,CN(C)c1ccc(N=Nc2ccccc2C(=O)OCC(=O)N2CCCC2)cc1,inactive
4,CC(=O)NCCNc1nc2c(-c3ccccc3)nnn2c2ccccc12,"inconclusive: 100 µM [inhibitor, partial curve, poor fit]"
5,CCC(C)NC(=O)CSc1nc2cc3c(cc2c(=O)n1CCCCCC(=O)NCc1ccc2c(c1)OCO2)OCO3 (configuration not stated),inactive
6,O=C(COC(=O)c1nc(Cl)c(Cl)c(Cl)c1Cl)NCc1ccccc1,inactive
7,Cc1ccc2nc(-c3ccc(SCC(=O)Nc4nc(C)cs4)nc3)[nH]c2c1,"inconclusive: 50.1 µM [inhibitor, partial curve, poor fit]"
8,COC(=O)c1cc(NS(=O)(=O)c2ccc(N3CCCCC3)c([N+](=O)[O-])c2)cc(C(=O)OC)c1,"inconclusive: 89.1 µM [inhibitor, single point]"
9,O=C(CSc1nccn1C1CCCC1)Nc1ccc(C(F)(F)F)cc1,inactive
10,Cc1ccc(/C=C2\CCCC3=C2NC(=S)NC3c2ccc(C)cc2)cc1 (configuration not stated),"inconclusive: 44.7 µM [inhibitor, partial curve, poor fit]"
11,COC(=O)c1ccc(-n2nnnc2SCc2nn[nH]n2)cc1,"inconclusive: 89.1 µM [inhibitor, single point]"
12,Cc1c(C(=O)Nc2ccc(S(N)(=O)=O)cc2)oc2ccc(Cl)cc12,"inconclusive: 79.4 µM [inhibitor, single point]"
13,CC(=O)Nc1ccc(S(=O)(=O)NC2CC(=O)N(c3ccc(C)c(C)c3)C2)cc1 (configuration not stated),inactive
14,CCOC(=O)N1CCN(C(=O)c2ccc(CSc3ccc(Cl)cc3)cc2)CC1,"inconclusive: 35.5 µM [inhibitor, full curve, poor fit]"
15,CCCCC(=O)NNC(=S)NC(=O)c1ccc([N+](=O)[O-])cc1,"inconclusive: 31.6 µM [inhibitor, partial curve, poor fit]"
16,CCN1/C(=C\C=C2\C(=O)N(C)C(=S)N2C)Sc2ccccc21,"inconclusive: 17.8 µM [inhibitor, partial curve, poor fit]"
17,O=C(Nc1cccc2nsnc12)c1ccc(-c2ccc(Br)cc2)o1,"inconclusive: 50.1 µM [inhibitor, partial curve, poor fit]"
18,CCC(C)(C)NC(=O)C(c1ccccc1F)N(Cc1ccco1)C(=O)c1csnn1 (configuration not stated),inactive
19,COc1ccc(NS(=O)(=O)c2ccc3oc(SC4CCOC4=O)nc3c2)cc1 (configuration not stated),inactive
20,COCCCn1c(SCC(=O)OC2CCCCC2)nnc1-c1cccs1,inactive
21,CCOc1ccc(NC(=O)CCC(=O)c2ccc(Br)cc2)cc1,"inconclusive: 89.1 µM [inhibitor, single point]"
22,CCCCC(=O)NNC(=S)NC(=O)CCC,"inconclusive: 89.1 µM [inhibitor, partial curve, poor fit]"
23,S=c1[nH]nc(-c2ccco2)n1/N=C/c1cccc(Cl)c1Cl,"inconclusive: 39.8 µM [inhibitor, partial curve, poor fit]"

row,SMILES,Potency
1,CC(C)C(=O)OCc1cn(-c2ccc(Cl)c(Cl)c2)nn1,"inconclusive: 44.7 µM [inhibitor, partial curve, poor fit]"
2,O=C1CC(NNc2ccccc2)C(=O)N1c1ccc(N2CCCCC2)cc1 (configuration not stated),"inconclusive: 31.6 µM [inhibitor, full curve, poor fit]"
3,CN(C)S(=O)(=O)c1ccc(C(=O)Nc2nnc(SCC(=O)NCC3CCCO3)s2)cc1 (configuration not stated),"inconclusive: 89.1 µM [inhibitor, single point]"
4,Cc1ccc(OCCCn2cc(C#N)c3ccccc32)cc1,inactive
5,CC1=Nc2cc(C(=O)NCCCOC(C)C)ccc2Sc2ccccc21,inactive
6,COc1ccccc1CNC(=O)C(=O)NCC1OCCN1S(=O)(=O)c1ccc(Br)cc1 (configuration not stated),inactive
7,CN(Cc1cccnc1)C(=O)c1cc(S(=O)(=O)Nc2ccccc2F)ccc1Cl,inactive
8,CC(C(=O)Nc1ccc(O)c(C(=O)O)c1)N1C(=O)/C(=C/c2cccs2)SC1=S (configuration not stated),"inconclusive: 10 µM [inhibitor, full curve, poor fit]"
9,Cc1ccc(-c2csc(NC(=O)C3CC(=O)N(c4ccc5c(c4)OCCO5)C3)n2)o1 (configuration not stated),"inconclusive: 31.6 µM [inhibitor, full curve, poor fit]"
10,CNc1ccccc1C(C)(C)c1cc(-c2cccc(Br)c2)no1,inactive
11,CC(=O)c1ccccc1OCCOc1ncnc2sccc12,"inconclusive: 89.1 µM [inhibitor, single point]"
12,CCOc1ccc(Cc2c(C)[nH]c3ccc(C(=O)O)cc3c2=S)cc1,"inconclusive: 100 µM [inhibitor, single point]"
13,CCN(CC)C(=O)CSC1=C(C#N)C(c2ccco2)C(C(=O)OCCOC)=C(C)N1 (configuration not stated),"inconclusive: 56.2 µM [inhibitor, partial curve, poor fit]"
14,COc1ccc(/C=N/n2cnnc2SCc2ccc(OC)cc2)cc1,inactive
15,COc1ccc(C(=O)CCN2CCN(c3ccccc3OC)CC2)cc1,"inconclusive: 100 µM [inhibitor, partial curve, poor fit]"
16,O=[N+]([O-])c1ccccc1C=NNC(=S)NN=Cc1ccccc1[N+](=O)[O-],inactive
17,CCN1C(=NCc2cc(OC)c(OC)c(OC)c2)N[C@@H](c2ccccc2)C(C(=O)OC)=C1C,"inconclusive: 17.8 µM [inhibitor, full curve, poor fit]"
18,CCCCN1C(=O)/C(=C(/C#N)C(N)=O)c2ccccc21,"inconclusive: 89.1 µM [inhibitor, partial curve, poor fit]"
19,Cc1cc(SCNC(=O)c2ccccc2)ncn1,"inconclusive: 28.2 µM [inhibitor, partial curve, poor fit]"
20,CC(=O)Nc1cc(-c2ccccc2)ccc1O,"inconclusive: 89.1 µM [inhibitor, single point]"
21,COc1ccc(NC(=O)CSc2nnc(NC(=O)c3ccccc3C(=O)O)s2)cc1,"inconclusive: 50.1 µM [inhibitor, partial curve, poor fit]"
22,CCN(c1nc(N)c(C(=O)N=C(N)N)nc1Cl)C(C)C,"inconclusive: 9.47 µM [inhibitor, partial curve, poor fit]"
23,CC(=O)c1cccc(NC(=O)Cn2c(=O)oc3cc(S(=O)(=O)N4CCCC4)ccc32)c1,"inconclusive: 79.4 µM [inhibitor, single point]"

row,SMILES,Potency
1,CCc1cccc(NC(=S)Nc2cccc3ccccc23)c1,"inconclusive: 89.1 µM [inhibitor, partial curve, poor fit]"
2,COC(=O)c1cc(OC)c(OC)c(OC)c1N,"inconclusive: 50.1 µM [inhibitor, partial curve, poor fit]"
3,Cc1noc(C)c1C(=O)OCC(=O)Nc1c(F)cccc1F,"inconclusive: 39.8 µM [inhibitor, partial curve, poor fit]"
4,NC(=O)CC(NC(=O)c1ccccc1)c1ccc(N2CCCCCC2)c([N+](=O)[O-])c1 (configuration not stated),"inconclusive: 89.1 µM [inhibitor, single point]"
5,COc1ccccc1C1=NN(C(=S)Nc2ccccc2)C(c2ccco2)C1 (configuration not stated),"inconclusive: 79.4 µM [inhibitor, partial curve, poor fit]"
6,COc1ccccc1N1C(=O)C=C(Sc2nc(C)cc(C)n2)C1=O,"inconclusive: 17.8 µM [inhibitor, full curve, poor fit]"
7,Cc1[nH]c2ccccc2c1C(c1ccncc1)N1CCC(C)CC1 (configuration not stated),inactive
8,Cc1c(CCCC(=O)O)sc(N)c1C(=O)c1cccc(C(F)(F)F)c1,"inconclusive: 79.4 µM [inhibitor, partial curve, poor fit]"
9,CCC1CCCCN1c1nc(-c2cccc(OC)c2O)nc2ccccc12 (configuration not stated),inactive
10,Cc1ccc(C(=O)/C=C/C(=O)O)cc1,"inconclusive: 50.1 µM [inhibitor, partial curve, poor fit]"
11,O=[N+]([O-])c1ccc(S(=O)(=O)Nc2ccc3c(c2)OCCO3)cc1,"inconclusive: 89.1 µM [inhibitor, single point]"
12,c1ccc2c(c1)CC(N1CCCCC1)c1ccccc1S2 (configuration not stated),inactive
13,COc1ccc(Cc2noc(CN3CCN(Cc4csc(C)n4)CC3)n2)cc1OC,"inconclusive: 89.1 µM [inhibitor, single point]"
14,CCN(c1ccccc1)S(=O)(=O)c1ccc(Cl)c(C(=O)NC2CCN(Cc3ccccc3)CC2)c1,inactive
15,O=C(CSc1n[nH]c(-c2ccco2)n1)Nc1ccc(Br)cc1,"inconclusive: 70.8 µM [inhibitor, partial curve, poor fit]"
16,CSc1nsc(SC)c1C(=O)OCC(F)(F)F,"inconclusive: 70.8 µM [inhibitor, partial curve, poor fit]"
17,Cc1ccc(S(=O)(=O)N2CCOCC2)cc1NC(=O)COC(=O)CNC(=O)c1ccc(Oc2ccccc2)cc1,inactive
18,COc1cc(C(=O)NC(=S)Nc2cccc(-c3cc4ccccc4oc3=O)c2)cc(OC)c1OC,"inconclusive: 79.4 µM [inhibitor, partial curve, poor fit]"
19,O=C(Nc1ccc(Nc2ccccc2)cc1)c1ccc(Cl)c([N+](=O)[O-])c1,inactive
20,O=C(NC1CCCCC1)C(c1ccccc1F)N(Cc1ccco1)C(=O)c1ccccn1 (configuration not stated),inactive
21,CC(C)(C)OC(=O)NCCc1nnc(SCc2ccccc2Cl)o1,inactive
